Experimental data published in the supplement of paper PMC6609913.
Where a name gives a salt, the structure may show the parent alone. ± gives the standard deviation of the averaged measurements. The full ranking holds about 1,300 compounds; the median of “normalised cell viability” is about 1, and the lowest 2% start at about 0.15. The list shows a part of the results.

Tested on: V-C8 + BRCA2 (BRCA2-proficient hamster cells)
Experiment: normalised cell viability (fraction of plate median); higher = more viable cells (less toxic)
Conditions: 5 µM
Procedure, shortened: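 In two screens, library drugs at 5 μM were given for 3 days (screen 1) or 6 days (screen 2) to hamster V-C8 cells without BRCA2 and V-C8 cells with BRCA2 restored, seeded 24 h earlier in 96-well plates. A resazurin assay gave the cell viability readout, expressed as modified robust per cent of sample against the plate median, with triplicate wells averaged.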

Row | Compound | normalised cell viability (treatment time: 3 days) | normalised cell viability (treatment time: 6 days)
1 | CCOc1nc2cccc(C(=O)O)c2n1Cc1ccc(-c2ccccc2-c2nnn[nH]2)cc1 [Candesartan] | 0.991 ± 0.082 | 1.03 ± 0.083
2 | C[C@@](Cc1ccc(O)c(O)c1)(NN)C(=O)O [Carbidopa] | 1.06 ± 0.075 | 1.03 ± 0.068
3 | Cn1c(=O)c2c(ncn2CC2OCCO2)n(C)c1=O [Doxofylline] | 1 ± 0.028 | 1.03 ± 0.034
4 | CN1CCN(CC(=O)N2c3ccccc3C(=O)Nc3cccnc32)CC1 [Pirenzepine dihydrochloride] | 1.13 ± 0.098 | 1.14 ± 0.03
5 | CN(CCCCCCCCCCN(C)C(=O)Oc1cccc([N+](C)(C)C)c1)C(=O)Oc1cccc([N+](C)(C)C)c1 [Demecarium bromide] | 1.01 ± 0.027 | 0.978 ± 0.027
6 | CC(=O)N(CC(O)CO)c1c(I)c(C(=O)NCC(O)CO)c(I)c(C(=O)NCC(O)CO)c1I (centres undefined) [Iohexol] | 1.05 ± 0.021 | 0.988 ± 0.028
7 | COC(=O)Nc1nc2cc(Sc3ccccc3)ccc2[nH]1 [Fenbendazole] | 0.183 ± 0.0078 | 0.179 ± 0.017
8 | Nc1ccc(S(=O)(=O)Nc2nccs2)cc1 [Sulfathiazole] | 0.988 ± 0.022 | 1 ± 0.065
9 | CC(CNC1CCCCC1)OC(=O)c1ccccc1 (centres undefined) [Hexylcaine hydrochloride] | 0.967 ± 0.028 | 1 ± 0.012
10 | Cc1ccc(-c2cc(C(F)(F)F)nn2-c2ccc(S(N)(=O)=O)cc2)cc1 [Celecoxib] | 1.06 ± 0.065 | 1.06 ± 0.051
11 | CC[C@H]1OC(=O)[C@H](C)[C@@H](O[C@H]2C[C@@](C)(OC)[C@@H](O)[C@H](C)O2)[C@H](C)[C@@H](O[C@@H]2O[C@H](C)C[C@H](N(C)C)[C@H]2O)[C@](C)(O)C[C@@H](C)CN(C)[C@H](C)[C@@H](O)[C@]1(C)O [Azithromycin] | 1.03 ± 0.039 | 0.955 ± 0.041
12 | C[C@@H]1CCC[C@H](C)N1NC(=O)c1ccc(Cl)c(S(N)(=O)=O)c1 [Clopamide] | 1.22 ± 0.11 | 0.9899 ± 0.0083
13 | CN[C@H]1CC[C@@H](c2ccc(Cl)c(Cl)c2)c2ccccc21 [Sertraline] | 0.701 ± 0.035 | 0.705 ± 0.018
14 | CC(=O)Nc1c(I)c(C(=O)N[C@H]2C(O)O[C@H](CO)[C@@H](O)[C@@H]2O)c(I)c(N(C)C(C)=O)c1I (some centres undefined) [Metrizamide] | 1.04 ± 0.07 | 1.02 ± 0.12
15 | CCN(CC)CCNC(=O)c1ccc(N)cc1 [Procainamide hydrochloride] | 1.09 ± 0.059 | 1 ± 0.036
16 | CNCC(O)c1ccc(O)c(O)c1 (centres undefined) [Racepinephrine HCl] | 0.962 ± 0.018 | 0.946 ± 0.02
17 | CCOC1O[C@H]([C@@H](COCc2ccccc2)OCc2ccccc2)[C@H](OCc2ccccc2)[C@H]1O (some centres undefined) [Tribenoside] | 0.9859 ± 0.0075 | 0.919 ± 0.019
18 | Clc1ccc2nsnc2c1NC1=NCCN1 [Tizanidine HCl] | 0.974 ± 0.026 | 1.03 ± 0.016
19 | CC(=O)Nc1nnc(S(N)(=O)=O)s1 [Acetazolamide] | 0.895 ± 0.068 | 1 ± 0.045
20 | Cc1cc2cc3c(C)cc(=O)oc3c(C)c2o1 [Trioxsalen] | 0.991 ± 0.036 | 0.818 ± 0.12
21 | CC(C)Oc1ccc2c(=O)c(-c3ccccc3)coc2c1 [Ipriflavone] | 0.993 ± 0.029 | 1.08 ± 0.11
22 | CCCCOc1cc(C(=O)OCCN(CC)CC)ccc1N [Benoxinate hydrochloride] | 1.29 ± 0.087 | 1.29 ± 0.011
23 | C[C@]12CC[C@@H]3c4ccc(O)cc4C[C@@H](CCCCCCCCC[S+]([O-])CCCC(F)(F)C(F)(F)F)[C@H]3[C@@H]1CC[C@@H]2O (some centres undefined) [Fulvestrant] | 0.671 ± 0.042 | 0.733 ± 0.011

Row | Compound | normalised cell viability (treatment time: 3 days) | normalised cell viability (treatment time: 6 days)
24 | CO/N=C(\C(=O)N[C@@H]1C(=O)N2C(C(=O)O)=C(COC(C)=O)CS[C@H]12)c1csc(N)n1 [Cefotaxime sodium salt] | 1.11 ± 0.094 | 1.1 ± 0.076
25 | CC(C)[C@H](N)C(=O)OCCOCn1cnc2c(=O)nc(N)[nH]c21 [Valacyclovir hydrochloride] | 1.04 ± 0.12 | 1.05 ± 0.046
26 | CN1CCN2c3ncccc3Cc3ccccc3C2C1 (centres undefined) [Mirtazapine] | 1.04 ± 0.045 | 1 ± 0.085
27 | CN(C(=O)CN(CCO)CC(=O)N(C)C(C)(C)Cc1ccccc1)C(C)(C)Cc1ccccc1 [Oxethazaine] | 0.326 ± 0.21 | 0.247 ± 0.038
28 | COC(=O)N/N=C/c1c[n+]([O-])c2ccccc2[n+]1[O-] [Carbadox] | 1.03 ± 0.017 | 0.978 ± 0.03
29 | COc1cc(NS(=O)(=O)c2ccc(N)cc2)ncn1 [Sulfamonomethoxine] | 1.01 ± 0.011 | 1.03 ± 0.02
30 | CC1(C)O[C@@H]2C[C@H]3[C@@H]4C[C@H](F)C5=CC(=O)C=C[C@]5(C)[C@@]4(F)[C@@H](O)C[C@]3(C)[C@]2(C(=O)CO)O1 [Fluocinolone acetonide] | 1.04 ± 0.034 | 1.16 ± 0.078
31 | Cc1cc(C)nc(NS(=O)(=O)c2ccc(N)cc2)n1 [Sulfamethazine sodium salt] | 1.04 ± 0.026 | 1.02 ± 0.04
32 | CC(C(O)c1ccc(O)cc1)N1CCC(Cc2ccccc2)CC1 (centres undefined) [Ifenprodil tartrate] | 0.995 ± 0.035 | 0.982 ± 0.024
33 | COc1ccc(Cl)cc1C(=O)NCCc1ccc(S(=O)(=O)NC(=O)NC2CCCCC2)cc1 [Glibenclamide] | 1.05 ± 0.051 | 0.818 ± 0.18
34 | CC#C[C@]1(O)CC[C@H]2[C@@H]3CCC4=CC(=O)CCC4=C3[C@@H](c3ccc(N(C)C)cc3)C[C@@]21C [Mifepristone] | 0.981 ± 0.086 | 0.98 ± 0.026
35 | CCCOc1ccccc1-c1nc2[nH]nnc2c(=O)[nH]1 [Zaprinast] | 1.11 ± 0.09 | 1.03 ± 0.018
36 | CCN(CC)C(=O)Nc1ccc(OCC(O)CNC(C)(C)C)c(C(C)=O)c1 (centres undefined) [Celiprolol HCl] | 1 ± 0.048 | 1.04 ± 0.11
37 | N[C@H]1CONC1=O [(S)-(-)-Cycloserine] | 1.04 ± 0.043 | 0.917 ± 0.29
38 | CCCCC1C(=O)N(c2ccccc2)N(c2ccc(O)cc2)C1=O (centres undefined) [Oxyphenbutazone] | 1.13 ± 0.35 | 0.825 ± 0.22
39 | COc1cc2nc(N3CCN(C(=O)C4COc5ccccc5O4)CC3)nc(N)c2cc1OC (centres undefined) [Doxazosin mesylate] | 0.937 ± 0.049 | 0.95 ± 0.0022
40 | CCN(CCCCOC(=O)c1ccc(OC)c(OC)c1)C(C)Cc1ccc(OC)cc1 (centres undefined) [Mebeverine hydrochloride] | 1.01 ± 0.019 | 0.949 ± 0.12
41 | Cc1cc(C(C)(C)C)cc(C)c1CC1=NCCN1 [Xylometazoline hydrochloride] | 1 ± 0.036 | 1.02 ± 0.02
42 | CCN(CC)C(=O)C1(c2ccccc2)CC1CN (centres undefined) [Milnacipran hydrochloride] | 0.956 ± 0.095 | 0.937 ± 0.048
43 | O=P(O)(O)C(O)(Cn1ccnc1)P(=O)(O)O [Zoledronic acid hydrate] | 1.04 ± 0.021 | 0.94 ± 0.083
44 | CCN(CC)CCOCCOC(=O)C1(c2ccccc2)CCCC1 [Carbetapentane citrate] | 0.163 ± 0.0089 | 0.181 ± 0.0049
45 | C=CCOc1ccccc1OCC(O)CNC(C)C (centres undefined) [Oxprenolol hydrochloride] | 1.05 ± 0.041 | 1.06 ± 0.059
46 | NC[C@H]1O[C@H](O[C@H]2[C@H](O)[C@@H](O[C@H]3O[C@H](CO)[C@@H](O)[C@H](N)[C@H]3O)[C@H](N)C[C@@H]2N)[C@H](N)C[C@@H]1O [Tobramycin] | 0.986 ± 0.053 | 1.03 ± 0.036

Row | Compound | normalised cell viability (treatment time: 3 days) | normalised cell viability (treatment time: 6 days)
47 | Cc1c(N)c(=O)n(-c2ccccc2)n1C [Ampyrone] | 1.02 ± 0.02 | 0.996 ± 0.013
48 | CCOC(=O)/C=C(C)/C=C/C=C(C)/C=C/c1c(C)cc(OC)c(C)c1C [Etretinate] | 1.01 ± 0.043 | 1.13 ± 0.071
49 | c1ccc(CNc2ncnc3nc[nH]c23)cc1 [Aminopurine, 6-benzyl] | 0.976 ± 0.01 | 1.02 ± 0.072
50 | CN1Cc2c(N)cccc2C(c2ccccc2)C1 (centres undefined) [Nomifensine maleate] | 1.13 ± 0.051 | 1.07 ± 0.087
51 | CC(C)(O)c1ccccc1CC[C@@H](SCC1(CC(=O)O)CC1)c1cccc(/C=C/c2ccc3ccc(Cl)cc3n2)c1 [Montelukast] | 1.01 ± 0.059 | 1.06 ± 0.065
52 | COc1c(N2CCNC(C)C2)c(F)cc2c(=O)c(C(=O)O)cn(C3CC3)c12 (centres undefined) [Gatifloxacin] | 1.02 ± 0.051 | 1.02 ± 0.037
53 | CCOC(=O)[C@@](C)(N)Cc1ccc(O)c(O)c1 [Methyldopate hydrochloride] | 0.931 ± 0.046 | 0.991 ± 0.043
54 | O=C(c1ccccc1)c1ccc2n1CCC2C(=O)O (centres undefined) [Ketorolac tromethamine] | 1.06 ± 0.075 | 1.06 ± 0.02
55 | CO/N=C(\C(=O)N[C@@H]1C(=O)N2C(C(=O)OC(C)OC(C)=O)=C(COC(N)=O)CS[C@H]12)c1ccco1 (some centres undefined) [Cefuroxime axetil] | 1.01 ± 0.057 | 1.04 ± 0.12
56 | COc1ccccc1OCC(O)COC(N)=O (centres undefined) [Methocarbamol] | 0.987 ± 0.04 | 1.05 ± 0.12
57 | Nc1ccn([C@@H]2CS[C@H](CO)O2)c(=O)n1 [Lamivudine] | 0.335 ± 0.012 | 0.406 ± 0.023
58 | Cc1cc(N)c2ccccc2[n+]1CCCCCCCCCC[n+]1c(C)cc(N)c2ccccc21 [Dequalinium dichloride] | 0.173 ± 0.013 | 0.191 ± 0.012
59 | NC1CCN(c2nc3c(cc2F)c(=O)c(C(=O)O)cn3-c2ccc(F)cc2F)C1 (centres undefined) [Tosufloxacin hydrochloride] | 1.01 ± 0.016 | 1.09 ± 0.024
60 | COC(=O)Nc1nc2cc([S+]([O-])c3ccccc3)ccc2[nH]1 (centres undefined) [Oxfendazol] | 0.74 ± 0.055 | 0.827 ± 0.05
61 | CCCOc1ccc(C(=O)OCCN(CC)CC)cc1N [Proparacaine hydrochloride] | 0.857 ± 0.1 | 0.953 ± 0.05
62 | CC[C@@H](CO)NCCN[C@@H](CC)CO [Ethambutol dihydrochloride] | 1.05 ± 0.058 | 1 ± 0.011
63 | C[C@]1(Cn2ccnn2)[C@H](C(=O)O)N2C(=O)C[C@H]2S1(=O)=O [Tazobactam] | 0.967 ± 0.064 | 0.933 ± 0.068
64 | CC(CN(C)C)C(C)(O)Cc1ccc(Cl)cc1 (centres undefined) [Clobutinol hydrochloride] | 1.08 ± 0.019 | 1.03 ± 0.07
65 | CC(=O)OCC(=O)[C@@]1(OC(C)=O)[C@@H](C)C[C@H]2[C@@H]3C[C@H](F)C4=CC(=O)C=C[C@]4(C)[C@@]3(F)[C@@H](O)C[C@@]21C [Diflorasone Diacetate] | 1.06 ± 0.074 | 1.08 ± 0.034
66 | C=CCOC(Cn1ccnc1)c1ccc(Cl)cc1Cl (centres undefined) [Enilconazole] | 0.985 ± 0.021 | 1.04 ± 0.013
67 | C#C[C@]1(O)CC[C@H]2[C@@H]3CCC4=CC(=O)CC[C@@H]4[C@H]3CC[C@@]21CC [Norgestrel-(-)-D] | 1.01 ± 0.033 | 1.16 ± 0.27
